Source: the supplement of paper PMC11417369
The list shows a part of the results.

test system: PfAP2-HC AP2 domain (GST-tagged); test: gcPBM binding intensity (ln(normalized median fluorescence intensity)); higher = stronger DNA binding
In short: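 GST-fused DNA-binding domains of P. falciparum, expressed in E. coli, were applied at about 25 μg on average for 1 h to an Agilent 4 × 180k array of primer-extended double-stranded 36-bp intergenic genomic probes and negative controls. Binding intensity is the highest Masliner-normalised natural-log median intensity across replicate spots of either probe orientation, measured with Alexa488 anti-GST antibody and a 488 nm scan.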

Sequence	gcPBM binding intensity (ln)
TTTTTTTTTTTTTTTTGTACTCATACATACTATCAT [XGTACX_site3650]	9.29
CAGGCACTAATAAACACACACATATAAATATAAATA [CACACA_site6320]	10.1
ACATCAAGCAGACACACACACACACCCACCCACCCA [CACACA_site8012]	11.5
AATTTCTACTATTGTATGCACTTTCATACATACATA [GTGCAC_site9924]	9.92
AACACAAGAACAGAACGTACACACACATATATATAT [XGTACX_site7347]	10.4
AGGTGTGAGACCACGTTCACAAAATAAAATACATAA [CACACA_negctrl_site326]	9.73
AACAACTATTAATTTACACACATGTATATATTTTAC [CACACA_site3116]	10
AATAGCTAGCTGTGCACACAAACATATTTTCCAAAT [CACACA_site880]	9.91
ATATATATATAATTTTGTACATAATAGCAATTCTAA [XGTACX_site653]	9.53
GGATGGAGTAGTTAAGCATAATAAATAAAATTATGT [CACACA_negctrl_site578]	9.58
GTTTTAAACAAAAATTGTACAATATAATCTTCCTAT [XGTACX_site2851]	9.55
CAAAACCTTTTATGTACACACATATACATCCCACTT [CACACA_site5716]	10.3
ACCTCACAAATGAATACACACAAACATATATATTTA [CACACA_site4976]	10
TATTTTATTATACCAAGTACAAAATTTAAATATGAA [XGTACX_site5478]	9.49
TATAAGAGAATATATACACACAAAAATAAATACAGT [CACACA_site5000]	10.9
ATTTTATGTTGAAAGTGTACGTATTAATATGTAGAA [XGTACX_site245]	9.82
CCACAAGCAGCGGAAACATGCATATGTTGAAATAAT [TGCATGCA_site610]	9.39
TCATTTCACAAACACACACACACAATATATTTCCTT [CACACA_site3905]	10.3
AACAAAAAAAAAAAATGTACATATATATAATATATT [XGTACX_site3829]	9.71
GTTAAGAATATGTGTACACATATACATAAATACATA [CACACA_site4254]	9.85
TAATAATATTATTAATGTACAAATATATATACATAT [XGTACX_site7348]	9.58
TATATATATATATATTGTACCCTTTTCAAACTTCTC [XGTACX_site2812]	9.39
TTTTTCTTTTTCTTTTTTTCTTTTTTTTTTTTTTTC [GTGCAC_negctrl_site727]	9.21

Sequence	gcPBM binding intensity (ln)
CAGACGCACGTATTTGCACACATTGCCACGTAATTA [CACACA_site3349]	10.2
AACCATTCAACTGATGCATGCATTTAACATATAAAT [TGCATGCA_site961]	9.59
GGATTGATAAGTGGTACACACATATATATTATATAT [CACACA_site2866]	9.96
GCATTGGGAATATATAGTACATATATATATATATAA [XGTACX_site2967]	9.56
AAATATAAAAATAGCACACATATATACCTATATATA [CACACA_site4204]	9.85
AAAAAAATTGGGAAAAGTACTTGCAGCTAGCTAAAA [XGTACX_site5178]	9.69
TTAAAAAAAATTTCAAGTACAAAGTAATATATATAT [XGTACX_site5718]	9.61
AAACAAATATAATATTGTACATATATATATATATAT [XGTACX_site3105]	9.72
TATTTGCAATATAACACACACAAAAAAAGACTCGGA [CACACA_site6891]	10.2
CATATATATATATATTGTACACATTTTTTATAAAAA [XGTACX_site2526]	9.49
AATTATACATTATATTGTACATATGAATAATTAAAA [XGTACX_site6829]	9.58
TATATGTAATATATATGTACGTATAATATAATATTG [XGTACX_site8620]	9.69
ATACAAATAAAAAAAAAAATTATAAAATTATAAAAT [CACACA_negctrl_site914]	9.53
AGTGATAATTTAAAAAGTACAAATGAAATTTAGCTA [XGTACX_site3375]	9.67
TATATATAAAGCAGTACACACATTTATTTTAGATAC [CACACA_site3387]	9.96
AGAGAGAAAGCTATAACATGCAAAAATTTTTAGAAC [TGCATGCA_site420]	9.94
TTTGTAACTTCTTTCACACATATATATATATATATA [CACACA_site5603]	9.73
GTGTGCAAAAATTGTTGTACATTATATATAAAAAAA [XGTACX_site3246]	9.97
TTTCACATATATATGGTGCATATTTTATGTGTAAAT [GTGCAC_site9937]	9.7
CTATTATCGGTTCCTACACACAAATATAGATGTCTA [CACACA_site7651]	9.88
TATATAATACAAAAGGGTACATTAACATATTATATA [XGTACX_site3196]	9.69
TGGAATAAAAAAAGGAGTACAATTAATTATTCTTAA [XGTACX_site8299]	9.5
TATATATATATATATGTGCACATATTTATATGTTTT	9.64

Sequence	gcPBM binding intensity (ln)
GAAATTAAATGACATACACACTATATTATATATTTT [CACACA_site5693]	9.83
TAGATAGATTAAAATACATGCATATTATTAAAAAAT [TGCATGCA_site739]	9.59
CACCCATACACATACAAACACACATTCTATATATAT [CACACA_site1600]	10.1
CATACATACATACATACACACATACATATGTATATA [CACACA_site7216]	10.1
AGCATAAAAATGATATGTACATATATATATATATAT [XGTACX_site2836]	9.79
ATTTAATGTATTTTGCGTACGAATTATTTTATTTCA [XGTACX_site7331]	9.9
TATCTTCAATGTGAAAGTACTTAAATTGTTATAAAA [XGTACX_site2586]	9.15
AATCATAAACATTATGCACACAAAAATAAAAAAAAA [CACACA_site8289]	9.9
TATCAAAAAAAAAGTAGTACGATAATAGTTTCCCAA [XGTACX_site1812]	9.56
ACTTATAATATTTAGTGTACATATTGTGACTAATAC [XGTACX_site1508]	9.78
AAAAAAAAAACAAATGCATGTAATATAAGAATTACA [TGCATGCA_site908]	9.7
TATTTATAAATTTACACACACACATGTGAACATAAA [CACACA_site1909]	10
ATTTTAAAAAATTAATGTACTTAATTAATACTGAAA [XGTACX_site7702]	9.13
ATTTGTTCATTTGGTTGTACATAATTTATTTTTATA [XGTACX_site785]	9.79
TTTTCATTTTTTTTTTTTTTTTTTTTTCTTTTTTTT [CACACA_negctrl_site1312]	9.4
ATTTCTTTAATATACACACACCAAAACAAAAAAAAA [CACACA_site6416]	10
AAAAACAATCATTTTAAATAAAAATCTCTAATTTAA [GTGCAC_negctrl_site138]	9.4
ATATAGTTCGATATAGTTAGTATGAATTGAAAAATA [CACACA_negctrl_site1826]	9.61
TTTTTAAAATATTTAACACACAATTTTAATGCATAA [CACACA_site6036]	9.61
AAAAAAATAAAACACACACACAAAAAAATAAAAATA [CACACA_site465]	10.8
GTTGTGTAATTCGTAACACACATAAAATATATATAA [CACACA_site6059]	9.82
TTTTTTATTAAATATATATAATAATAATAATTTGTA [CACACA_negctrl_site1719]	9.25
TATATTATATATTTATGTACGTATTTGTAAAAAGAT [XGTACX_site3444]	9.56

Sequence	gcPBM binding intensity (ln)
TTTGTTTTATGTGGTTGTACACAAATACAATTTAAA [XGTACX_site5156]	9.47
ATAATAATTATATCAGTGCGCATATATATTTATTTA	9.71
TCATAGCACAAAAAATGTACTTATTATTTAATATTT [XGTACX_site5687]	9.55
ATGTGATAATTTAATAGTACATAACAGTTTAACAAT [XGTACX_site5854]	10
CAAACAAATTGTGAAACACACATATTTATATTTATA [CACACA_site7030]	9.6
TTATAAAATAAACTTACACACATGAAATATTATAGT [CACACA_site7000]	9.75
TTTATATGCAATTAAGTGCATAAGAAAAAAAAAGGA [GTGCAC_site9966]	9.64
CACTTAAAAAAAATACGTACACATATATATATATAT [XGTACX_site2054]	9.77
TATCAGTATACAACAACACACATAATGTTTGTCATC [CACACA_site2980]	9.92
CAAAAATAAATATAAACACACAATAAATAAATAAAT [CACACA_site891]	10
ATTTAATAACGGCATGCATGTCCTTATATAAATTTA [TGCATGCA_site1012]	9.52
TGAATTGTAATTTATAATATACGTGGTTTCTACTTA [CACACA_negctrl_site559]	9.53
CCTTACCAAATAATATGTACACATTTAATGTTATAT [XGTACX_site7840]	9.7
TATTATATATTATATAGTACATATTTATGTAAGAGG [XGTACX_site3099]	9.88
CAAAATTAATAAGTCACACACACATATATAATATAT [CACACA_site798]	11
TATAAAAATATATGCACACAAATAAAAAATTATATA [CACACA_site3629]	9.91
TATATTTATACAATATGTACATATTATATATATATA [XGTACX_site3098]	9.65
ATGGTATCTTTTAGAAGTACATCATGATAATAATTT [XGTACX_site5544]	9.4
GATCATAATATTTAAAAGAATATATATAAAAAGGAA [XGTACX_negctrl_site310]	9.64
GTATTAATTTATATATGTACATATGTGATATATATA [XGTACX_site5825]	9.74
